This is an account of results in PubChem BioAssay AID360 (National Center for Advancing Translational Sciences (NCATS), 2006).

Screen size: about 48,000 compounds; about 550 (1.1%) were called active. Another 4% or so got no clear call; they are omitted. Rule as the data show it: active = potency below about 15 µM; inconclusive = mostly about 16 µM to 33 µM; inactive = weaker than that. Some of the results follow. Where only a bound is given, the exact number is not on record here.
Potency is read from the fitted curve at half-maximal effect.

Chain of UniProt P04062 (P04062 whole entry, looked up): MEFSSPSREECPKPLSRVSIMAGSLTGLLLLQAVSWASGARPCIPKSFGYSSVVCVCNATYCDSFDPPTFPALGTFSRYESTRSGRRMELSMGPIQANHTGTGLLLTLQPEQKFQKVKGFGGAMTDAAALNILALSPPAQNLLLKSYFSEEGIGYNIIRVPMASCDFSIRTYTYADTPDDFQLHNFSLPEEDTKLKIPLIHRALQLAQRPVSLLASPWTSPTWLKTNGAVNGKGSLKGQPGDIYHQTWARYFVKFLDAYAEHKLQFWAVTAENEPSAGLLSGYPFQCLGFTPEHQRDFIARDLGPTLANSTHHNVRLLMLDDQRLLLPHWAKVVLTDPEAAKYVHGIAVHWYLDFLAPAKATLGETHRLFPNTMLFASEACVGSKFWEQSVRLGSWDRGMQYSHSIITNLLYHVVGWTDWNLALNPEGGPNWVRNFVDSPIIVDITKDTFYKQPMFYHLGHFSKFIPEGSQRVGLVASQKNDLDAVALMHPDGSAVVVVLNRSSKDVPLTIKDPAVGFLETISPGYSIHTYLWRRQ

The test addresses Lysosomal acid glucosylceramidase (Homo sapiens) (UniProt P04062). In words: Glucocerebrosidase.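 Also: the screen sought inhibitors.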 As to conditions: purified enzyme, resorufin glucoside fluorescence (screen aimed at inhibitors), 20 min; series mostly up to 77 µM. The procedure, abridged:
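Normal human glucocerebrosidase (0.2 nM final) was assayed with resorufin β-D-glucopyranoside (30 uM final) in 50mM citric acid/KH2PO4, 10mM sodium taurocholate, 0.01% tween-20, pH 5.9. Compounds were titrated; fluorescence (Ex 548, Em 600) read after 20 min at RT.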
Consider `Cn1c(N2CCOCC2)nc(-c2ccccc2)c1-c1ccccc1`, for which the Potency is active: 8.58 µM. Then `Cc1ccc(-n2c(N)c(C(=O)N3CCOCC3)sc2=S)cc1`, with inactive: > 76.9 µM; and `CCOc1ccc(-c2nnc(SCC(=O)N3CCOCC3)o2)cc1`, with inactive: > 76.9 µM; and `Cc1cc(C)n(CCc2nc3c4ccccc4nc(SCc4ccc(C#N)cc4)n3n2)n1`, with inactive: > 76.9 µM.

`O=C(Nc1nnc(CCN2CCCCC2)s1)C1CCCCC1`: the Potency was inactive: > 76.9 µM. Then `Nc1nnc(SCc2ccccc2Cl)s1`, with inactive: > 76.9 µM; and `CCc1ccccc1NC(=O)C(C#N)Cc1cccnc1` (stereo not given), with inactive: > 76.9 µM; and `Cc1ccc(N2CC(C(=O)Nc3cccnc3)CC2=O)cc1` (stereo not given), with inactive: > 76.9 µM.

As to `Cn1c(CCN2CCN(c3ccccc3)CC2)nc2cc(NC(=O)c3ccco3)ccc21`, the Potency is inactive: > 76.9 µM. The result for `O=C(CN1CCc2ccccc21)NC(=O)NCc1ccco1` reads inactive: > 76.9 µM; that for `Cn1nnc(NC(=O)CSc2ccc(Cl)cc2)n1`, inactive: > 76.9 µM.

On to `CCOC(=O)c1nc(S(C)(=O)=O)ncc1N1CCOCC1`, for which the Potency is inactive: > 76.9 µM. Then `CC(C)N(C)C1CCN(C(=O)Nc2ccc(Cl)cc2)CC1`, with inactive: > 76.9 µM. For `Cc1ccc(CS(=O)(=O)CCC(=O)NCC2CCCO2)cc1` (stereo not given), the Potency is inactive: > 76.9 µM. Then `CCOC(=O)Cn1cnc2c(nnn2-c2ccc(OC)cc2)c1=O`, with inactive: > 76.9 µM; and `Cc1cc(C)n(-c2nc3ccccc3c(=O)n2OCC(=O)Nc2c(C)cccc2C)n1`, with inactive: > 76.9 µM; and `Cc1nn(Cc2ccc(Cl)cc2)c(C)c1NC(=O)C1CC=CCC1C(=O)O` (stereo not given), with inactive: > 76.9 µM.

For the molecule `Cc1c(N=C2NC(=O)C(CC(=O)Nc3ccccc3)S2)c(=O)n(-c2ccccc2)n1C` (stereo not given), the Potency was inactive: > 76.9 µM. The result for `COc1cc2c(cc1OC)C(C(=O)N1CCCCC1)C(c1ccccc1F)N(C)C2=O` (stereo not given) reads inactive: > 76.9 µM; that for `COc1ccc(-c2noc(COc3ccc(C)c(C)c3)n2)cc1OC`, inactive: > 76.9 µM. With `CCOC(=O)c1[nH]c(C)c(C(=O)Nc2cccc(Cl)c2C)c1C`, the Potency was inactive: > 76.9 µM.

For the molecule `CC(=O)Nc1ccc(OCC(O)CN2CCN(c3cc(Cl)ccc3C)CC2)cc1` (stereo not given), the Potency is inactive: > 76.9 µM. Then `COCC(C)NC(=O)COc1ccc(Cl)cc1Cl` (stereo not given), with inactive: > 76.9 µM; and `COc1ccc(C2CC(=O)c3cnc(NC(=O)c4ccccc4)nc3C2)c(OC)c1` (stereo not given), with inactive: > 76.9 µM. The result for `Cc1cc(C)nc(Nc2n[nH]c(COc3ccc(Cl)cc3)n2)n1` reads inactive: > 76.9 µM; that for `Cc1cccc(NC(=O)C2CCCN(c3nc(C)cc(C)n3)C2)c1` (stereo not given), inactive: > 76.9 µM. The result for `CC1Cc2ccccc2N1C(=O)Cn1cnc2ccccc2c1=O` (stereo not given) reads inactive: > 76.9 µM. In the case of `CC(=O)N1CCCc2cc(S(=O)(=O)Nc3ccc4c(c3)OCO4)ccc21`, the Potency is inactive: > 76.9 µM. Then `Cc1ccc(S(=O)(=O)NCc2ccncc2)cc1`, with inactive: > 76.9 µM; and `CCOc1ccccc1-n1c(SCC(N)=O)nnc1-c1ccccc1`, with inactive: > 76.9 µM; and `N#Cc1cccc(NC(=O)c2nc(-c3ccccc3)n(-c3ccccc3)n2)c1`, with inactive: > 76.9 µM. The result for `CC1(C)CC(=O)c2cc(OCC(=O)N3CCN(c4ccccc4F)CC3)ccc2O1` reads inactive: > 76.9 µM. Then `CCC(=O)N1CCc2cc(Br)cc(S(=O)(=O)CCC(=O)NCC3CCCO3)c21` (stereo not given), with inactive: > 76.9 µM; and `Cc1ccc(-c2noc(CN(C(=O)c3cccs3)C(C)C)n2)cc1`, with inactive: > 76.9 µM; and `Cc1cc(NC(=O)c2ccc(S(=O)(=O)N(C)C)cc2)no1`, with inactive: > 76.9 µM. Turning to `CCOc1ccc(C(=O)Nc2ccc3c(c2)OCO3)cc1OCC`, the Potency is inactive: > 76.9 µM. In the case of `CCOC(=O)c1c(C)[nH]c(C(=O)CSc2nc3ccccc3o2)c1C`, the Potency is inactive: > 76.9 µM. Then `O=C(Cc1c(C(=O)O)[nH]c2ccccc12)Nc1ccc2c(c1)OCO2`, with inactive: > 76.9 µM; and `CCOC(=O)C(NCCCO)c1ccccc1` (stereo not given), with inactive: > 76.9 µM. Turning to `CCOC(=O)C1=C(N)n2c(s/c(=C\c3cccnc3)c2=O)=C(C(=O)OCC)C1c1cccnc1` (stereo not given), the Potency was inactive: > 76.9 µM.

In the case of `Cn1c(CN2CCCCC2)c(C#N)c2ccccc21`, the Potency is inactive: > 76.9 µM. The result for `CCOC(=O)c1[nH]c(C)c(C(=O)Nc2cc(Cl)ccc2C)c1C` reads inactive: > 76.9 µM; that for `Cc1cc(C(=O)OCC(=O)Nc2ccc(S(=O)(=O)N3CCOCC3)cc2)c(C)o1`, inactive: > 76.9 µM. Then `CCC(=O)Nc1nnc(CSCc2ccccc2)s1`, with inactive: > 76.9 µM; and `N#Cc1c(N2C(=O)C3C4C=CC(C4)C3C2=O)sc2c1CCC2` (stereo not given), with inactive: > 76.9 µM; and `CCN(CC)S(=O)(=O)c1ccc(N2CCCC2)c(C(=O)OCC(=O)/C(C#N)=C(\C)N)c1`, with inactive: > 76.9 µM. For the molecule `COCCn1c(SCC(=O)c2ccc(F)cc2)nnc1C(C)C`, the Potency was inactive: > 76.9 µM. The result for `COc1ccc(S(=O)(=O)N[C@H](C(=O)N2CC[C@@]3(O)CCCC[C@H]3C2)c2ccccc2)cc1` reads inactive: > 76.9 µM. Consider `CC1CCCCC1NC(=O)CSc1nncs1` (stereo not given), for which the Potency is inactive: > 76.9 µM. Then `CN(C(=O)C1CCOC1)c1nnc(-c2ccccn2)s1` (stereo not given), with inactive: > 76.9 µM; and `COc1cc(C2c3c(oc4ccc(Cl)cc4c3=O)C(=O)N2Cc2ccco2)cc(OC)c1OC` (stereo not given), with inactive: > 76.9 µM; and `CCOC(=O)c1sc2ncnc(N3CCN(C(=O)OCC)CC3)c2c1C`, with inactive: > 76.9 µM. The result for `Cc1ccc(C(=O)NCc2ccc(Cl)cc2)o1` reads inactive: > 76.9 µM; that for `COc1ccc(OC)c(NC(=O)CSc2ncccc2C(=O)O)c1`, inactive: > 76.9 µM. The result for `CCOc1ccc(N2CC(C(=O)NCCCN3CCOCC3)CC2=O)cc1` (stereo not given) reads inactive: > 76.9 µM; that for `O=C(c1ccco1)n1nc(NCc2ccccc2)nc1NCc1ccccc1`, “inactive”; that for `CC(C)(C)Oc1ncc(Br)c(OC(C)(C)C)n1`, inactive: > 76.9 µM. As to `CC(C)Cc1nc(S(=O)(=O)c2ccc(Cl)cc2)c(N2CCOCC2)o1`, the Potency is inactive: > 76.9 µM. `Cc1nc(N2CCN(Cc3nc4ccccc4[nH]3)CC2)c2oc3ccccc3c2n1`: the Potency is inactive: > 76.9 µM. Then `COc1ccccc1-n1c(SCC(=O)O)nnc1-c1ccc(S(=O)(=O)N2CCCCC2)cc1`, with inactive: > 76.9 µM; and `CCn1c(SCc2ccccc2)nnc1-c1cccs1`, with inactive: > 76.9 µM. The result for `COc1cc(C2CC(=O)N3CN(c4ccccc4C)CSC3=C2C#N)cc(OC)c1OC` (stereo not given) reads “inactive”. As for `COc1ccccc1Nc1nc(N)nc(CSc2nc(C)cc(C)n2)n1`, the Potency was inactive: > 76.9 µM. As to `CCOC(=O)C1=C(CC)Nc2ccccc2N=C1NC(=O)Cn1cnc2ccccc2c1=O`, the Potency was inactive: > 76.9 µM. The result for `Cc1cc(C(=O)Nc2cccc(C(=O)O)c2)oc1C` reads inactive: > 76.9 µM; that for `Cc1nn(C)cc1CNC(=O)c1ccccc1Br`, inactive: > 76.9 µM; that for `Cc1cccc2cc(CN(Cc3ccc(F)cc3)C(=O)N(C)C)c3nnnn3c12`, inactive: > 76.9 µM. Consider `O=C(c1ccccc1)c1ccc(OC(=O)N2CCCC2)cc1`, for which the Potency is inactive: > 76.9 µM. Then `Cc1nc2ccc(S(=O)(=O)NCC(=O)N3CCOCC3)cc2s1`, with inactive: > 76.9 µM; and `CCC1CCCCN1S(=O)(=O)c1ccc(C(=O)Nc2nnc(-c3ccccc3Cl)o2)cc1` (stereo not given), with inactive: > 76.9 µM.

On to `CC(=O)c1cccc(S(=O)(=O)N(Cc2cc3cc4c(cc3[nH]c2=O)OCCO4)CC2CCCO2)c1` (stereo not given), for which the Potency is inactive: > 76.9 µM.

As to `O=C(c1ccccc1)c1cccn1CC(=O)N1CCN(C2CCCCC2)CC1`, the Potency was inactive: > 76.9 µM. Then `CCOC(=O)C1=C(C)NC(SCC(=O)OC)=C(C#N)C1c1ccc(C(=O)OC)cc1` (stereo not given), with inactive: > 76.9 µM; and `CC1CCCC(C)N1S(=O)(=O)c1ccc(NC(=O)c2ccccc2C(=O)N2CCOCC2)cc1` (stereo not given), with inactive: > 76.9 µM. Then `CC(NC(=O)c1cccs1)C(c1cccs1)N1CCOCC1` (stereo not given), with inactive: > 76.9 µM. Regarding `Nc1nc(Nc2ccc(Cl)cc2Cl)nc(C(F)(F)F)n1`, the Potency is inactive: > 76.9 µM.

Turning to `COc1ccc2[nH]cc(C(=O)CN3CCCCC3)c2c1`, the Potency is inactive: > 76.9 µM. `O=C(NC12CC3CC(CC(C3)C1)C2)N1CCC(O)CC1`: the Potency was inactive: > 76.9 µM. The result for `COc1ccc(N2CCN(c3ccc(NC(=O)c4ccc5c(c4)OCO5)cc3C#N)CC2)cc1` reads inactive: > 76.9 µM; that for `CCCc1noc2c1C(c1ccoc1)C(C#N)=C(N)N2` (stereo not given), inactive: > 76.9 µM; that for `Cc1cccc(-n2nnc(C(=O)NCc3ccco3)c2N)c1`, inactive: > 76.9 µM. Then `CCOC(=O)c1sc(NC(NC(=O)c2ccco2)(C(=O)OC)C(F)(F)F)nc1C` (stereo not given), with inactive: > 76.9 µM; and `COc1ccccc1OCc1ccc(C(=O)NCc2ccco2)o1`, with inactive: > 76.9 µM; and `CC1(C)NC(=O)N(CC(O)CN2C(=O)NC(C)(C)C2=O)C1=O`, with inactive: > 76.9 µM. The result for `CCN(CC)CCCN1C(=O)C(=O)/C(=C(/O)c2ccc3c(c2)OCO3)C1c1ccccn1` (stereo not given) reads inactive: > 76.9 µM; that for `Cn1c(Cc2ccccc2)nnc1SCC(=O)Nc1ccc2c(c1)OCO2`, inactive: > 76.9 µM; that for `Cc1ccccc1NC(=O)CSc1nc(N)c(C#N)cc1C#N`, inactive: > 76.9 µM.

Turning to `CN(C)S(=O)(=O)c1cccc(C(=O)OCC(=O)Nc2sccc2C(N)=O)c1`, the Potency was inactive: > 76.9 µM.

With `CCOc1c(N2CCCCC2)c(=O)c1=O`, the Potency was inactive: > 76.9 µM. The result for `CC(C)NC(=O)NC(=O)COc1cccc2c1OC(C)(C)C2` reads inactive: > 76.9 µM.
